# Assay results reported in article PMC4336329 (PLoS ONE, 2015).
# Hit rate of the full screen: of about 310,000 compounds, about 2,200 (0.71%) showed an effect of 50% or more. Effects have a minus sign here. Some of the results follow.
# Target: human ether-à-go-go-related gene (hERG) potassium channel (human, UniProt Q12809)
# Assay: primary screen, population patch clamp on CHO cells stably expressing hERG
# Sequence of human ether-à-go-go-related gene (hERG) potassium channel (Q12809 whole entry, looked up): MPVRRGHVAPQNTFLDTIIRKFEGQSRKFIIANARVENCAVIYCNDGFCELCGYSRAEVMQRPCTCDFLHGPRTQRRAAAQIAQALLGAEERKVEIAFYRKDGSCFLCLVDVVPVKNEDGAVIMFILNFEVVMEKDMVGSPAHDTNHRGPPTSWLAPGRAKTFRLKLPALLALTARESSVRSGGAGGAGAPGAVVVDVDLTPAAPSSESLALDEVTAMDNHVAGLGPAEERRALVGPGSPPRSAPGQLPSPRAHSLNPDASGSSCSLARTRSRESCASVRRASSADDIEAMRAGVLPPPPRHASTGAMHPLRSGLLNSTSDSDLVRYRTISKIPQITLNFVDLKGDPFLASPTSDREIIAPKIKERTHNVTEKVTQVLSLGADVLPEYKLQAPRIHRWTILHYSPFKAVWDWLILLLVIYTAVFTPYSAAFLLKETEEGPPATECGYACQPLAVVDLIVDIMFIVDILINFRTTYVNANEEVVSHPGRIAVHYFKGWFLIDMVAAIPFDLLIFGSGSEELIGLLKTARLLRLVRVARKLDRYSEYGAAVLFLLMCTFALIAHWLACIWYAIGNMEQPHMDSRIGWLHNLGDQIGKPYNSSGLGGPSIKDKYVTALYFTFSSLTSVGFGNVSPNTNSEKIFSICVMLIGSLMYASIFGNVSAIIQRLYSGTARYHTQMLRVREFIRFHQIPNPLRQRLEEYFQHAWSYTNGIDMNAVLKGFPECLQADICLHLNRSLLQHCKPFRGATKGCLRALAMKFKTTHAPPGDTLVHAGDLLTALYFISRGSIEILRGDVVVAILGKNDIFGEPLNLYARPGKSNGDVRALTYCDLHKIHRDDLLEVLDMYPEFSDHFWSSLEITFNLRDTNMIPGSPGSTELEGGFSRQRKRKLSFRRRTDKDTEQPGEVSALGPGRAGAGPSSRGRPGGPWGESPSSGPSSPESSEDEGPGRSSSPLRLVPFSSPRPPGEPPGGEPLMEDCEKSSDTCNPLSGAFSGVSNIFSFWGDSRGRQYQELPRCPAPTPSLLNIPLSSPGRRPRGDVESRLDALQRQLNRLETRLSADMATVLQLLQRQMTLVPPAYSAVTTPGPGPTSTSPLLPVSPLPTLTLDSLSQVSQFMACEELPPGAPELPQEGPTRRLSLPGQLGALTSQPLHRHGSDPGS
row,SMILES,"hERG current change (%, negative = inhibition) at 1uM"
1,CCN(C(=O)c1cc(Cl)ccc1OC)c1ccccc1,16.9%
2,COC(CNC(=O)[C@H](Cc1ccccc1)N1Cc2ccccc2C1=O)OC,11.7%
3,CC(=O)c1c(C(C)=O)c(C)n(NC(=O)c2ccccc2Cl)c1C,15.2%
4,N#CC1=C(S)N(c2ccccc2)C(c2ccc(-c3ccccc3Cl)o2)NC1=O (centres unmarked),9.7%
5,CCN(Cc1ccncc1)C(=O)c1cc(COc2c(F)cccc2F)on1,-8.09%
6,O=C(Nc1cc(N2CCOCC2)ncn1)c1ccc(F)cc1,-4.41%
7,O=C(c1ccc(N2CCOCC2)nc1)N1CCOCC1,5.93%
8,CCN(CC)C(=O)CSc1nc(O)cc(=O)n1CC,5.12%
9,CCN(CC)C(=O)C1CCCN(C(=O)Nc2ccccc2)C1 (centres unmarked),-2.22%
10,CCOc1cc(Br)ccc1S(=O)(=O)N1CCC(C(N)=O)CC1,-2.43%
11,CCC(C)NC(=O)c1ccc(-n2c(=S)[nH]c3ccccc3c2=O)cc1 (centres unmarked),15.5%
12,O=C(C1CCN(S(=O)(=O)c2ccc(Cl)cc2)CC1)N1CCC1,13.2%
13,O=C(c1cn(-c2ccccc2)nc1-c1ccc(Cl)s1)N1CCOCC1,1.21%
14,CN1C(=O)/C(=C/c2ccccc2F)Sc2ccc(C(=O)NCC3CCCO3)cc21 (centres unmarked),3.48%
15,CCN1CCN(Cc2ccc(NC(=O)c3ccc(C)c(NC(=O)c4ccnnc4)c3)cc2C(F)(F)F)CC1,13.3%
16,O=C(Nc1ccccc1)Nc1nnc(CSCc2ccccc2Cl)s1,5.66%
17,O=C(Nc1nnc(-c2ccccn2)o1)c1ccc(Br)cc1,13%
18,Cc1nnc(NC(=O)CSC2CCCCC2)s1,9.28%
19,COCc1c(C(=O)OC)nnn1-c1ccccc1,4.9%
20,CCC(=O)c1cc(F)ccc1OCC(=O)Nc1ccc2c(c1)OCCO2,2.38%
21,Cn1c(=O)c2[nH]c(=O)cnc2n(C)c1=S,10.1%
22,Cc1ccccc1Oc1ncnc2oc(-c3ccccc3)cc12,3.42%
23,CCC1=NN(C(=O)c2ccc(Cl)cc2)C(O)(c2ccc(C)cc2)C1 (centres unmarked),9.89%

row,SMILES,"hERG current change (%, negative = inhibition) at 1uM"
1,CC1(C)CC(=O)C=C(C(=O)N2CCCC(C(=O)c3cccc(Cl)c3)C2)O1 (centres unmarked),-0.27%
2,O=C(CSC1c2ccccc2-c2ccccc21)N/N=C/c1ccccc1C(=O)O,7.3%
3,Cc1oc(-c2ccccc2)cc1C(=O)NC1CCN(Cc2ccccc2)CC1,15.3%
4,CC1CCC(C(=O)NC(C(=O)Nc2ccccn2)C(C)C)CC1 (centres unmarked),12.8%
5,Cl.Nc1c2c(nc3ccccc13)CCCC2.O,-11.8%
6,CN(CC(=O)Nc1ccc(F)cc1)C(=O)c1ccccc1OCc1ccc(F)cc1,-2.45%
7,C=CCc1ccc(OC)cc1,11.4%
8,CC(C)(C)CNC(=O)[C@]1(C)CCC[C@@]2(C)C3CC[C@@]4(C)C[C@]3(CCC21)CC4=O (some centres unmarked),10.2%
9,CC(=O)c1ccc(OCc2cc(C(=O)NCCn3nc(C)cc3C)no2)cc1,11.4%
10,COc1ccc(-c2nc3c(s2)CN(S(C)(=O)=O)CC3)cc1OC,11.7%
11,COc1ccc(-c2oc(NC(C)=O)c(C#N)c2-c2ccc(OC)cc2)cc1,-1.68%
12,COc1ccc(/C=N/N2C(=O)c3ccccc3C2=O)cc1,7.26%
13,O=C(Nn1c(Cc2cccs2)nc2ccccc2c1=O)c1ccc(F)c(F)c1,11%
14,Cc1ccc(N2CCN(C(=O)c3nn(C)c4c3CS(=O)(=O)c3ccccc3-4)CC2C)cc1 (centres unmarked),-25.4%
15,CN(C)c1nc2n(c(=O)n1)C(C#N)CS2 (centres unmarked),9.32%
16,Cc1ccc(-c2cnc3ccccc3n2)cc1C,8.14%
17,C=CCc1ccc(OCCCCN2CC(C)OC(C)C2)c(OC)c1.O=C(O)C(=O)O (centres unmarked),7.55%
18,O=C(Cc1ccccc1)NC(=S)Nc1cc(C(F)(F)F)ccc1Cl,14.8%
19,COc1ccc(OCC(O)Cn2c(=N)n(Cc3ccccc3)c3ccccc32)cc1.Cl (centres unmarked),-76.6%
20,CCCCN(CC)Cc1c(C)[nH]c2c(ccc3ccccc32)c1=O,-49.6%
21,COC(=O)NCC(c1ccco1)N1CCN(c2ccc(F)cc2)CC1 (centres unmarked),9.2%
22,CC1(c2ccccc2)NC(=O)N(N)C1=O (centres unmarked),13.7%
23,COc1ccc(Cc2nnc(SCC(=O)Nc3cc(Cl)ccc3C)[nH]c2=O)cc1,5.69%

row,SMILES,"hERG current change (%, negative = inhibition) at 1uM"
1,O=C(COc1cc2oc(=O)c3c(c2cc1Cl)CCC3)NCC(O)c1ccccc1 (centres unmarked),21.8%
2,Cn1c(=O)c2c(nc(N3CCN(C(=O)c4ccco4)CC3)n2CCSc2ncccn2)n(C)c1=O,-17.4%
3,Cc1cc(NC(=O)C(C)SCC(=O)Nc2cc(C(F)(F)F)ccc2N2CCCCC2)no1 (centres unmarked),7.23%
4,CC(=O)c1c(C)[nH]c(C(=O)COC(=O)c2cccnc2Cl)c1C,-2.91%
5,Nc1ccc(C(=O)N/N=C2\CCCc3c2[nH]c2ccccc32)cc1,13%
6,CN(CCC#N)Cc1cc(=O)oc2ccc3ccccc3c12,4.99%
7,CC(C)(C)n1nnnc1C(c1ccc(F)cc1)N1CCC(C(N)=O)CC1.Cl (centres unmarked),8.48%
8,Cc1c(C(=O)CN2CCOCC2)[nH]c2ccccc12,5.75%
9,COc1ccc(CN(C(=O)c2nsc(Cl)c2Cl)C(C(=O)NC2CCCC2)c2ccc(C)cc2)cc1 (centres unmarked),10.9%
10,Nc1c(C(=O)Nc2ccc(Br)cc2)sc2nc(-c3ccco3)ccc12,9.85%
11,CS(=O)(=O)c1ccc(Cl)c(NC(=O)Nc2ccccc2)c1,9.36%
12,COc1ccc(Cc2nnc(Nc3ccc(C)cc3C)[nH]c2=O)cc1,15.2%
13,Brc1ccc(OCc2ccccc2)c(CNCc2ccncc2)c1.Cl,-3.74%
14,O=c1[nH]c(=O)n(-c2ccc(Br)cc2)c(O)c1C=NCCN1CCCCC1,9.54%
15,CCN(CC)CCOc1ccc(Br)cc1,-16%
16,O=C(CSc1ncn[nH]1)Nc1ccccc1Sc1ccccc1,-4.1%
17,c1ccc(NCc2nc3ccccc3n2CCOc2ccccc2)cc1,12.7%
18,Cc1ccc(NC2c3ncccc3C(=O)N2C2CCCCC2)cc1C (centres unmarked),-5.97%
19,COc1cccc(CC(=O)OC(C)C(=O)Nc2ccc(Cl)cn2)c1 (centres unmarked),10.8%
20,O=C(CCCNC(=O)c1ccc(Cl)cc1)Nc1ccc(S(=O)(=O)Nc2ncccn2)cc1,4.85%
21,O=C(N/N=C/c1ccc(Cl)cc1)c1nc2ccc([N+](=O)[O-])cc2c(=O)[nH]1,4.25%
22,Cc1cc(C)c2c(C(C)(C)C)nn(-c3ccccc3)c2n1,8.49%
23,CC(C)Oc1ccc(CC(=O)NNC(=S)Nc2ccccc2)cc1,0.114%

row,SMILES,"hERG current change (%, negative = inhibition) at 1uM"
1,CCc1noc(C)c1C(=O)Nc1nc(-c2ccc(OC)c(OC)c2)cs1,5.32%
2,Cc1sc2ncnc(OCC(=O)NC3CCS(=O)(=O)C3)c2c1C (centres unmarked),17.4%
3,Cc1ccc(N(CC(=O)NN=C2CCN(C)CC2)S(=O)(=O)c2ccccc2)c(C)c1,4.31%
4,CCCn1c(=S)[nH]c2cc(OC)c(OC)cc2c1=O,-4.22%
5,CCOC(=O)c1ccccc1NC(=O)c1ccc(Cl)c(S(=O)(=O)N2CCOCC2)c1,1.44%
6,Cn1c(CNC(=O)CCNC(=O)c2cccc(F)c2)cc(=O)n(C)c1=O,12.3%
7,CC(=O)Oc1ccc(/C=C2/SC(=S)N(Cc3ccccc3)C2=O)cc1,9.24%
8,COc1ccccc1NC(=O)CN(Cc1ccccc1)S(C)(=O)=O,10%
9,O=C(COC(=O)CCN=C1NS(=O)(=O)c2ccccc21)NNC(=O)c1ccc(Cl)cc1,3.49%
10,COc1ccc2[nH]cc(C(=O)C(=O)N3CCCCC3)c2c1,0.615%
11,CCC1=C(OC(=O)N(CC)CC)N2C(=O)OC(=NCC(=O)OC)[C@]2(Cc2ccccc2)[C@H]2C1=CC[C@H]1C(=O)N(CC(=O)OC)C(=O)[C@H]12,-0.264%
12,Cc1cccc(NS(=O)(=O)c2nnc(NC(=O)c3ccccc3F)s2)c1,10.7%
13,COc1cc2ccccc2cc1C(=O)Nc1cc(C)ccn1,11.6%
14,COc1ccc(C(C)NC(=O)C2C(=O)NC3(C)CC2c2ccccc2O3)cc1 (centres unmarked),1.22%
15,CCN1CCN(CCNC(=O)c2ccc(/C=C3\Sc4ccccc4N(Cc4ccccc4F)C3=O)cc2)CC1,-11.8%
16,CC(C)(C)NC(=O)Nc1ccccc1C(N)=O,8.5%
17,COC(=O)CN1C(=O)C2(C(C#N)=C(N)Oc3cc(C)oc(=O)c32)c2ccccc21 (centres unmarked),17.2%
18,C=CCn1c(SCC(=O)NCc2ccc3c(c2)OCO3)nc2scc(-c3ccc(F)cc3)c2c1=O,5.09%
19,CCOC(=O)C(CCCOc1ccc(C(C)CC)cc1)C(=O)OCC (centres unmarked),11.6%
20,CC(C)C(CCNCc1ccccn1)c1ccc(Cl)cc1 (centres unmarked),-20.9%
